# In PubChem BioAssay AID624296 (National Center for Advancing Translational Sciences (NCATS), 2012):
# Out of some 350,000 compounds screened, about 9,900 (2.8%) were called active. The shares of active, inactive and inconclusive entries below differ from those in the screen. The call rests on the fitted dose curve; in most records, active means well fitted activation curve with a large enough effect; inconclusive means small, poorly fitted or top-dose-only effect; inactive means no such curve, though single readings can be large or run the other way. No potency is given beside an inconclusive call; the fits are too rough.
# Experiment: A quantitative high throughput screen for small molecules that induce DNA re-replication in MCF 10a normal breast cells. Further: nearly all actives have a fitted effect of over 50% in size. On activity, positive = re-replication: % of control where 0% means no effect.
# Conditions: MCF 10A DNA re-replication, Hoechst nuclear intensity, 48 h; activity, positive = re-replication: at 46.1 µM (top of the series)
# Potency means the concentration at half of the fitted maximal effect; tags describe the fitted curve by direction and shape.
Structure (SMILES),Potency,"activity, positive = re-replication"
CCOc1ccc(CCNC(=O)CCS(=O)(=O)c2ccc(OC)cc2)cc1OCC,"inconclusive [activator, single point]",–
C=CCOc1ccc(/C=C/C(=O)Nc2ccc(C(=O)NC)cc2)cc1,"inconclusive [activator, single point]",–
COc1ccc(-n2nc3c(c2NC(=O)C(C)Cl)CSC3)cc1 (centres undefined),–,inactive: 14.1%
Cc1cc(N2CCN(c3ccccc3Cl)CC2)n2cc(-c3ccccc3)nc2n1,"inconclusive [activator, partial curve]",–
CC1=NCCN1S(=O)(=O)c1c(C(C)C)cc(C(C)C)cc1C(C)C,"inconclusive [activator, single point]",–
COc1ccc(NC(=O)c2cc(S(=O)(=O)N3CCCC3)ccc2C)cn1,–,inactive: -1.85%
CC(C)(C)C(=O)CNS(=O)(=O)c1ccc(S(=O)(=O)NC2CC2)cc1,–,inactive: -1.43%
CC(C)C[C@@H](CNCC(=O)[C@H](CC(C)C)NC(=O)c1[nH]cnc1C(=O)N[C@@H](C)CN)NC(=O)c1nc[nH]c1C(=O)N[C@@H](Cc1ccccc1)C(=O)O,"inconclusive [activator, single point]",–
CC1Cc2ccccc2N1C(=O)c1cc2c(=O)n3ccccc3nc2n1C (centres undefined),"inconclusive [activator, single point]",–
CCNC(=S)N(CCc1c(C)[nH]c2ccc(C)cc12)Cc1cccnc1,"inconclusive [activator, partial curve, poor fit]",–
Cc1cccc(NC(=O)COC(=O)c2ccc3c(=O)n4c(nc3c2)CCC4)c1,"inconclusive [activator, full curve, poor fit]",–
CCOc1cc(CNc2ccc(N(C)C)cc2)cc(Br)c1OCC(=O)NC(C)(C)C,"inconclusive [activator, single point]",–
CCOc1ccc(CC(=O)N/N=C/c2sccc2C)cc1,–,inactive: 11.7%
O=C1CC(C(=O)Nc2ccc(F)c(Cl)c2)N=C(N2CCCCC2)N1 (centres undefined),"inconclusive [activator, single point]",–
COc1ccc([N+](=O)[O-])cc1NC(=O)COC(=O)c1ccccn1,–,inactive: 0.877%
COc1ccc(COc2cc(-c3cccc(OC)c3)nc3ccc(NC(=O)c4cccnc4)cc23)cc1,"inconclusive [activator, partial curve]",–
N#CCCN1CCN(S(=O)(=O)c2ccc(S(=O)(=O)NCc3ccccc3)cc2)CC1,–,inactive: -0.712%
CCOC(=O)[C@@H]1[C@H]2COc3ccc(Br)cc3[C@H]2N2C(=O)N(c3cccc(Cl)c3)C(=O)[C@]12C,–,inactive: 1.72%
N#Cc1c(N)[nH]c2ccc(Sc3ccccc3)cc12,active: 0.92 µM,–
N#Cc1c(NC(=O)c2ccncc2)sc2c1CCC2,"inconclusive [activator, full curve, poor fit]",–
CCC(C)c1ccc(NC(=S)NCc2cccs2)cc1 (centres undefined),"inconclusive [activator, single point]",–
C[C@H]1O[C@@H](O[C@H]2CC[C@@]3(C)C(CC[C@]4(C)C3C=C[C@]35OC[C@@]6(CCC(C)(C)C[C@H]63)[C@@H](O)C[C@]54C)[C@]2(C)CO)[C@H](O)[C@@H](O[C@@H]2O[C@H](CO)[C@@H](O)[C@H](O)[C@H]2O)[C@H]1O (some centres undefined),"inconclusive [activator, single point]",–

Structure (SMILES),Potency,"activity, positive = re-replication"
CC1CC(C)CN(c2ncc3c(n2)CC(c2ccccc2Cl)CC3=O)C1 (centres undefined),"inconclusive [activator, single point]",–
CCOc1ccc(/C=C/c2c([N+](=O)[O-])c(=O)n(C)c(=O)n2C)cc1,"inconclusive [activator, partial curve, poor fit]",–
O=C(CN1C(=O)NC2(CCCC2)C1=O)OCCOc1ccc(F)cc1,"inconclusive [activator, full curve, poor fit]",–
COc1ccc(-n2c(SCC(=O)Nc3cc(C(=O)O)ccc3C)nc3ccccc3c2=O)cc1Cl,"inconclusive [activator, partial curve, poor fit]",–
O=C1CN(C(=O)c2cc(Br)c(Br)s2)c2ccccc2N1,"inconclusive [activator, single point]",–
CN(C)CCN(C(=O)/C=C/c1cccs1)c1nc2c(F)cc(F)cc2s1,"inconclusive [activator, single point]",–
COc1ccc(NC(=O)CC(c2ccc(F)cc2)c2ccc(OC)cc2)cc1 (centres undefined),–,inactive: -16.7%
O=C(CSc1ccc(S(=O)(=O)N2CCCCC2)cn1)Nc1ccccc1Br,"inconclusive [activator, partial curve, poor fit]",–
CC1(C)Cc2c(C#N)c(SCC(=O)c3ccccc3)nc(N3CCOCC3)c2CS1,"inconclusive [activator, partial curve]",–
O=[N+]([O-])c1cccc(/C([O-])=C(/C(=S)Nc2cccc3ccccc23)[n+]2ccccc2)c1,–,inactive: -3.08%
COc1ccc(NC(=O)C2CCN(c3ncnc4c3nc3n4CCCCC3)CC2)c(OC)c1,–,inactive: 2.81%
CC(C)C[C@H](NC(=O)[C@H](Cc1ccccc1)n1c(=O)[nH]c2ccccc2c1=O)C(=O)N1CCC(C(=O)O)CC1,"inconclusive [activator, partial curve, poor fit]",–
O=C(CCC(=O)N1CCN(c2cccc(Cl)c2)CC1)N1CCN(c2ccccc2)CC1,–,inactive: -0.0742%
O=C(O)CCn1c(Cc2ccccc2)nc2ccccc21,"inconclusive [activator, single point]",–
Oc1c(Br)cc(Br)cc1/C=N/Nc1ccc(Cl)nn1,"inconclusive [activator, full curve, poor fit]",–
O=C(Cn1cnc2c(oc3ccccc32)c1=O)NCc1ccco1,"inconclusive [activator, full curve, poor fit]",–
O=[N+]([O-])c1ccccc1S(=O)(=O)N1CCN(Cc2ccc3c(c2)OCO3)CC1,"inconclusive [activator, single point]",–
O=C(NCc1ccco1)C1CCCN(c2ncnc3c2nc2n3CCCCC2)C1 (centres undefined),"inconclusive [activator, partial curve, poor fit]",–
CCOC(=O)c1ccc(NC(=O)C2CCCN(S(=O)(=O)c3cnc[nH]3)C2)cc1 (centres undefined),"inconclusive [activator, partial curve, poor fit]",–
CCCOc1ccc(C(=O)NC(=S)NNC(=O)c2c(-c3ccccc3)noc2C)cc1,"inconclusive [activator, single point]",–
O=C(COC(=O)c1ccc(Br)o1)Nc1cccc(S(=O)(=O)N2CCCCCC2)c1,"inconclusive [activator, single point]",–
Cc1ccc(-c2cc(C(=O)N3CC(C)CC(C)C3)c3ccccc3n2)o1 (centres undefined),"inconclusive [activator, single point]",–

Structure (SMILES),Potency,"activity, positive = re-replication"
Brc1ccc(-c2nc(-c3ccccc3)no2)o1,"inconclusive [activator, partial curve, poor fit]",–
Cc1cc(/C=C2\SC(N)=NC2=O)c(C)n1-c1ccc(F)cc1,"inconclusive [activator, single point]",–
Oc1ccc(Cl)cc1CNCc1ccc(Cl)nc1,"inconclusive [activator, partial curve, poor fit]",–
Cn1c(Cl)c(/C=N/OC(=O)c2ccc(Cl)cc2)c2ccccc21,"inconclusive [activator, full curve, poor fit]",–
Cc1ccc(S(=O)(=O)N2CCOCC2)cc1C(=O)OCCOc1cccc(Cl)c1,–,inactive: 9.48%
CC(=O)Nc1ccc(/C=C/c2nc3ccccc3o2)cc1,"inconclusive [activator, full curve, poor fit]",–
O=C(CCl)Nc1ccc(S(=O)(=O)Nc2nccs2)cc1,"inconclusive [activator, single point]",–
Cn1nc(C(=O)OCC(=O)Nc2ccc(SC(F)F)cc2)c2ccccc2c1=O,"inconclusive [activator, single point]",–
COC(=O)c1nnn(CC(=O)Nc2cccc(Cl)c2C)c1C(=O)OC,"inconclusive [activator, full curve, poor fit]",–
CCOC(=O)c1ccc(NC(=S)N(CCN(C)C)Cc2cccs2)cc1,–,inactive: 29.9%
COc1ccc(CCNC(=O)CSc2nnc(-c3ccccc3)o2)cc1OC,–,inactive: -0.154%
O=C(N/N=C\c1ccc(F)cc1)c1ccc(Cn2cc(Br)c([N+](=O)[O-])n2)o1,"inconclusive [activator, single point]",–
O=C(NCc1ccccc1Cl)C1CCC(=O)N(CC2CCCCC2)C1 (centres undefined),–,inactive: 7.73%
FC(F)(F)c1ccc(-c2csc(-c3ccno3)n2)cc1,–,inactive: 12.9%
C/C(=N\NC(=O)c1cc2ccccc2cc1O)c1cccs1,"inconclusive [activator, single point]",–
COC(=O)/C=C1/N/C(=N\c2nc(C)cc(C)n2)N(c2cccc(C)c2)C1=O,–,inactive: 17.7%
CSc1nc2ccccc2n1Cc1cccc([N+](=O)[O-])c1,"inconclusive [activator, partial curve, poor fit]",–
COc1cc(CNCc2ccccn2)ccc1OCc1c(Cl)cccc1Cl,"inconclusive [activator, single point]",–
Cc1cc(C)c(NC(=O)CSc2nnc(-c3ccccn3)n2N)c(Cl)c1,–,inactive: 11.2%
CCCCCCOc1ccc(OC(=O)c2cccnc2)cc1,"inconclusive [activator, full curve, poor fit]",–
